From the supplement of paper PMC3334620
Whole data set: some 33,000 sequences, median “E-score (-0.5 to 0.5)” near -0.035, cut for the highest 2% near 0.34. Some of the results follow.

Biological target: T1, Mot3 (UniProt P54785)
T1 sequence: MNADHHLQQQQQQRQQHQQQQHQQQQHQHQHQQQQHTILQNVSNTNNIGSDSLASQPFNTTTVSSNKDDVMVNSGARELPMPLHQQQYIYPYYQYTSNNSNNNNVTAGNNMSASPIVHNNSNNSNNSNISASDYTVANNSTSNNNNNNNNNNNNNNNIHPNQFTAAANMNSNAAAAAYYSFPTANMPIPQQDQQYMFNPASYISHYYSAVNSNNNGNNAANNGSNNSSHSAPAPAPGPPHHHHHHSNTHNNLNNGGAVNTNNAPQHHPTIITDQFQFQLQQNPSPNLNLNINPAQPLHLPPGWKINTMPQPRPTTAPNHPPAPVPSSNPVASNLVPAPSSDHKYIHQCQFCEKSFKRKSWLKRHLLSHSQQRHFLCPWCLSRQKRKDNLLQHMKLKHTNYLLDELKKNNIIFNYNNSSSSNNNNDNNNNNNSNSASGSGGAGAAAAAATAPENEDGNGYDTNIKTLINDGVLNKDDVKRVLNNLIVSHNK
Experiment: PBM E-score (8-mer binding enrichment) (E-score (-0.5 to 0.5)); higher = stronger / more preferred TF binding; most listed sequences are background and not binding sites
Settings: protein concentration: 200 nM; construct: GST-full length
How it was run: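 Yeast transcription factors carrying a GST tag, as full-length proteins or DNA-binding domains, were produced by PURExpress in vitro transcription/translation. About 100-200 nM protein was applied to universal all-10-mer Agilent arrays, double-stranded by primer extension on fresh or once-stripped slides. Bound protein was detected with fluorescent anti-GST, and scans were normalised with masliner. The Universal PBM Analysis Suite gave each ungapped eight-base word, pooled with its reverse complement, an E-score, a modified Wilcoxon-Mann-Whitney statistic.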

| Sequence | PBM E-score |
| --- | --- |
| ACTATAAG | -0.0293 |
| ACATTGGT | -0.00875 |
| GCCCCCAA | -0.135 |
| GGTAGAAC | -0.0739 |
| CAATAGCC | 0.0124 |
| CTAGGAGC | -0.225 |
| AATCGACT | -0.0375 |
| GATTCATA | -0.139 |
| CAAAGAGG | 0.141 |
| GACACGAC | 0.31 |
| CCTAGCAA | 0.0746 |
| CCTCGCTC | -0.12 |
| TGGTTCAA | -0.109 |
| ACGTGACT | 0.104 |
| GAACTGAA | 0.0162 |
| GCACTTAC | 0.0258 |
| TAAGGACA | -0.0242 |
| AGTCCGGC | -0.124 |
| CGTGCCTC | 0.469 |
| CCACAATC | -0.227 |
| ATCATATA | 0.0889 |
| CTCCTATA | 0.0817 |
| ACGGACCA | -0.0375 |
| ACAATGCT | 0.0399 |
| CTGACACC | -0.106 |

| Sequence | PBM E-score |
| --- | --- |
| ACGTCTGA | -0.00689 |
| CAGGAAGA | -0.00284 |
| ACATAGAG | 0.205 |
| TGGATTAA | -0.0318 |
| AATTTACC | 0.153 |
| GTGCTAAC | -0.119 |
| CGCTGACA | 0.0501 |
| GGCTTGCA | 0.0946 |
| CTCCCGTA | -0.312 |
| AGCCGAAA | -0.186 |
| CGGAGGTA | -0.0405 |
| ATGCTTTA | 0.117 |
| TCCTGCGA | 0.053 |
| GGCGCGCA | -0.197 |
| CTTGTAAC | 0.281 |
| AGGTTACG | 0.00664 |
| CTCGAGTA | -0.0178 |
| AGCTTTTC | -0.105 |
| AGAGGTCG | -0.0837 |
| GCGGGCAC | 0.296 |
| CAGGGGCC | -0.0646 |
| ACTCGAGA | -0.152 |
| GCCCTTAC | -0.0326 |
| ACCACCAG | -0.0445 |
| CTATAAGA | -0.175 |

| Sequence | PBM E-score |
| --- | --- |
| TCGAAACA | -0.00906 |
| CTTCCAGC | -0.259 |
| TCCGTCGA | -0.149 |
| GTCATCGA | -0.048 |
| CTCCTCAG | -0.175 |
| CAGTTTAA | 0.121 |
| ACCTGGGA | -0.0112 |
| TACGAGGA | 0.0558 |
| AATACTTA | 0.0441 |
| GTAAGCAA | -0.0739 |
| ACATTAGT | 0.187 |
| CCGCAGTA | -0.212 |
| CTGACATC | 0.0354 |
| ATTTCAGC | 0.00613 |
| TAATTCGA | 0.105 |
| ATACTTAA | 0.173 |
| CTTTTGGC | -0.162 |
| AATGCAAC | 0.103 |
| CGACACCC | -0.149 |
| AGAAGTAA | 0.0883 |
| ATTCTGTA | 0.00519 |
| ACCCGCTA | -0.00464 |
| AAATTATG | 0.114 |
| CGCATCTA | -0.0639 |
| CATGTCCC | 0.0461 |

| Sequence | PBM E-score |
| --- | --- |
| GAGGTACC | -0.0594 |
| AAGTGGTC | -0.283 |
| CTGCCATC | -0.156 |
| AGCGGATC | -0.18 |
| AGTTTGGG | -0.0476 |
| AATCAGTG | -0.124 |
| AATGATGC | 0.0334 |
| AGCAAAAC | 0.0663 |
| GATCAGCC | -0.357 |
| TGCAATAA | 0.134 |
| CCGTTAAG | -0.0319 |
| CGGTAGAA | -0.207 |
| ATTGACGG | -0.154 |
| CGGATTGA | -0.125 |
| AACGTGAC | 0.0512 |
| AGGCAGAG | -0.0331 |
| ACTCCACC | -0.139 |
| GGTGGTCA | -0.235 |
| TGTGGAAA | 0.129 |
| ATCTTTTC | 0.0767 |
| AACTATTC | 0.015 |
| ACATAGCC | 0.186 |
| AGAGAACA | 0.157 |
| CCCTATTC | -0.216 |
| AGGAGCCG | -0.296 |

| Sequence | PBM E-score |
| --- | --- |
| CCCGCTGA | -0.264 |
| ATTCCCGC | -0.131 |
| CCTTGGCA | -0.184 |
| GTATCAAA | 0.0303 |
| CACATTCC | 0.0272 |
| CCCATAGG | -0.0217 |
| CTGGCCAA | -0.0769 |
| CGGCTATC | -0.341 |
| AAGGGGCC | -0.0871 |
| ACGGTTGC | 0.024 |
| GTTATCGA | -0.104 |
| ATGCGCGC | -0.0271 |
| ACTTAAAA | 0.0954 |
| CAAGCGTA | 0.00011 |
| CACCTCGC | -0.249 |
| AGTTATTG | 0.029 |
| ACGGGAGT | -0.168 |
| CTTAACAC | 0.333 |
| CCCTGCAA | 0.00233 |
| AAGCCCTA | 0.116 |
| GCTCAAGC | -0.308 |
| AAAAATAA | 0.109 |
| TTAAGAAA | 0.14 |
| AGAAAATA | -0.0363 |
| CACGTGGG | -0.0188 |

| Sequence | PBM E-score |
| --- | --- |
| CCCGGTCC | -0.254 |
| GGCCCATA | -0.108 |
| AAGCTTGC | -0.0575 |
| GGACGCTA | -0.206 |
| ACCGCGAC | -0.0532 |
| CCGTAGAA | 0.0555 |
| ACAGCGAC | -0.225 |
| CGGCAGTA | -0.11 |
| AGGTAGAG | -0.0271 |
| ATTCCCGG | -0.0185 |
| AGAGAACC | -0.214 |
| ACTTGGGC | -0.154 |
| CCTAAGAG | -0.00156 |
| TGGCCCCA | -0.246 |
| GATAGAAA | -0.091 |
| TCCCAGGA | -0.202 |
| CTAGATAG | 0.0526 |
| ATACGGAA | -0.0423 |
| ACCTGCCT | 0.226 |
| CCGATCGA | -0.221 |
| AGTCACGC | 0.216 |
| AAATCTTC | -0.0135 |
| GAATTCCA | -0.166 |
| TACTACCA | -0.0954 |
| CAAAGATA | -0.0691 |

| Sequence | PBM E-score |
| --- | --- |
| ATCGGATC | -0.134 |
| CAATCCAA | 0.0375 |
| AGGCGTTA | 0.0946 |
| ACGTGTAC | 0.343 |
| AGTATAAT | 0.00295 |
| CTCGCCGA | -0.259 |
| GCATATCC | -0.113 |
| CGTCCAGA | -0.345 |
| GAAGCACC | -0.13 |
| ATCTTGCA | 0.0843 |
| CCGGACAC | -0.163 |
| CCGTGCAG | -0.0427 |
| GACTACTC | 0.0874 |
| CATAATAA | 0.145 |
| AATTGCGT | 0.194 |
| ACTCTCAC | -0.181 |
| AGATACTG | -0.00245 |
| AAATGTGA | 0.117 |
| AGCGCTCA | -0.252 |
| CCTTGTCA | 0.179 |
| AATGACGA | 0.119 |
| AATATTGC | 0.107 |
